# In PubChem BioAssay AID485344 (National Center for Advancing Translational Sciences (NCATS), 2010):
# In all, about 340,000 compounds went through this assay and about 6,900 (2%) were called active. Rule as the data show it: active = inhibition above about 30%; inactive = below that, where a call was filed. The list shows a part of the results, in another mix than the full data. Entries without a call were filed so in the source.
# Biological target: D(2) dopamine receptor (Homo sapiens) (UniProt P14416)
# Chain of UniProt P14416 (P14416 whole entry, looked up): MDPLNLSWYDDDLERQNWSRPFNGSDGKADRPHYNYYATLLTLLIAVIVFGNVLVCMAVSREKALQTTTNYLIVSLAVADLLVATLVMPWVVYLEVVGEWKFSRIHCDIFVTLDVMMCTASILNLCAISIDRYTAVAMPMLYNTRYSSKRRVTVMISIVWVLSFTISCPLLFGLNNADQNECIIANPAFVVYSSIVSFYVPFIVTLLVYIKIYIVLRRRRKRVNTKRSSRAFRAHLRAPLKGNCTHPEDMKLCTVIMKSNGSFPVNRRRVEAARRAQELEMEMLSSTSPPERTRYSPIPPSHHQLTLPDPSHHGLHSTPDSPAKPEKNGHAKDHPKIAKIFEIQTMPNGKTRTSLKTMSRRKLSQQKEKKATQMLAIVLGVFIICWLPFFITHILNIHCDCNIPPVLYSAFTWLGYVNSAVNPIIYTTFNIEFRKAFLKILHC
# Experiment: HTS Assay for Allosteric Antagonists of the Human D2 Dopamine Receptor: Primary Screen for Antagonists; also: 0% is about no effect
# Details: HEK293 TREx D2 cells, calcium flux, dopamine EC80; at 10 µM; stronger effect = higher value
# In short: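 In this primary screen, negative modulation is detected by tracking calcium flux after an EC80 dopamine challenge in inducible HEK293 T-REx D2 cells preexposed to test compound for 180 s.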
row,SMILES,inhibition
1,CC(C)CCn1c(=O)c2sccc2n2c(CCCC(=O)Nc3ccc(C(C)C)cc3)nnc12,5.22%
2,CC(Oc1ccccc1)C(=O)Nc1c2c(nn1-c1ccccc1)CS(=O)C2 (stereo not given),active: 30.2%
3,CCOc1ccc(C(=O)Nc2ccc3nc4c(c(Nc5ccccc5OC)c3c2)CCCC4)cc1,5.75%
4,CCC1CCc2sc(C(=O)NC3CCN(Cc4ccccc4)CC3)cc2C1 (stereo not given),active: 76.8%
5,CCOc1ccc2nc(NC(=O)c3nc(SCc4ccc(C)cc4)ncc3Cl)sc2c1,0.859%
6,O=C(Cn1c(=O)n(Cc2ccc(C(=O)NCc3ccc4c(c3)OCO4)cc2)c(=O)c2ccccc21)Nc1cccc(Cl)c1,-18.6%
7,O=C1Cc2cc(S(=O)(=O)N3CCCCC3)cc3c2N1CCC3,18.1%
8,Cc1ccc(N2CC(NC(=O)Cc3ccc(F)cc3)CC2=O)cc1 (stereo not given),-4.79%
9,Cc1cccc(CSc2nc(=O)c3c(n2C)NC(=O)CC3c2cccc(O)c2)c1 (stereo not given),-11.5%
10,Cc1ccc2c(c1)sc1nc(-c3cc4cc(Cl)ccc4oc3=O)cn12,-22.9%
11,COc1ccccc1NC(=O)Cn1c(=O)n(-c2cccc(Cl)c2)c(=O)c2sc3ccccc3c21,3.82%
12,CCOC(=O)c1cc(-c2ccc(C)cc2)n(CCC(=O)Nc2cc(Cl)ccc2C)c1C,12.1%
13,O=S(=O)(NCC1CCCO1)c1ccc(S(=O)(=O)N(Cc2ccccn2)C2CC2)cc1 (stereo not given),active: 74.1%
14,CCOc1ccc(CCNC(=O)c2cc(Nc3ccc(C)cc3C)nc3ccccc23)cc1OCC,1.09%
15,CC1CCN(S(=O)(=O)c2ccc3[nH]cc(C(=O)NCc4ccc(F)cc4)c(=O)c3c2)CC1,6.79%
16,CCc1ccc(C2CC(=O)c3c([nH]c(C(=O)OCc4ccc(C)cc4)c3C)C2)cc1 (stereo not given),2.86%
17,Cc1noc(-c2ccc(-c3noc(-c4ccccc4)n3)cc2)n1,-21.3%
18,Cc1ccc(SC[C@H](c2ccccc2)N2CCN(CCc3ccccc3)CCC2=O)cc1,active: 40.7%
19,O=C(NCCc1ccc(Cl)cc1)c1ccc(CS(=O)(=O)Cc2ccc(Cl)cc2)o1,25.3%
20,Cc1cc(C)cc(NC(=O)Cn2c(=O)n(CC(=O)NCCc3ccccc3)c(=O)c3ccccc32)c1,4.55%
21,COc1cc(OC)c(C(=O)Oc2ccc3c(c2)OCO3)cc1OC,active: 30.2%
22,Cc1ccc(C(=O)c2cn(Cc3c(F)cccc3Cl)c3nc(C)ccc3c2=O)cc1,0.933%
23,Cc1ccc(CNC(=O)CN2C(=O)COc3ccccc32)cc1,-4.04%
24,CCOC(=O)c1c(C)[nH]c(C)c1S(=O)(=O)N(C)CC(=O)N1CCN(c2cccc(Cl)c2)CC1,-4.69%

row,SMILES,inhibition
1,Cn1c(=O)c2c(nc(N3CCOCC3)n2Cc2ccccc2)n(C)c1=O,-2.26%
2,Cc1cccc(C)c1NC(=O)Cn1cc(S(=O)(=O)Cc2ccc(F)cc2)c2ccccc21,9.04%
3,COC(=O)C1C(c2ccccc2)C(C(=O)N2CCN(C)CC2)C1c1ccccc1 (stereo not given),active: 33.1%
4,Cc1ccc(CNC(=O)c2cccc(Nc3nc4ccccc4n4nnnc34)c2)cc1,-15.4%
5,CCc1ccc(NC(=O)CCNC(=O)Cn2cnc3ccccc3c2=O)cc1,-7.14%
6,COc1cccc(OCC(O)CN2CCN(c3ccc(F)cc3)CC2)c1 (stereo not given),active: 80.4%
7,Cc1ccc(NC(=O)Cn2ncn3c(cc4ccccc43)c2=O)cc1C,12.2%
8,COc1cc(OC)c(NC(=O)c2c(C)oc3ncnc(N4CCCCC4)c23)cc1Cl,-7.61%
9,COC(=O)c1ccccc1NC(=O)Cn1c(=O)n(CCCCC(=O)NCc2ccc3c(c2)OCO3)c(=O)c2ccccc21,-6.89%
10,Cc1ccc(N2CCN(c3nc4ccccc4c4nnc(C)n34)CC2)c(C)c1,-10.5%
11,CCNc1sc(S(C)(=O)=O)nc1S(=O)(=O)c1ccc(C)cc1,-0.756%
12,Cc1ccc(Cn2c(=O)n(Cc3ccccc3Cl)c(=O)c3cccnc32)cc1,5.97%
13,CCCCc1nn2c(=O)cc(COC(=O)c3cccs3)nc2s1,-4.38%
14,Clc1cccc(-n2ncc3c(N4CCCCCC4)ncnc32)c1,20.7%
15,Cc1cc(C(=O)N2CCN(c3cc(Cl)ccc3C)CC2)c2c(C)nn(-c3ccccc3)c2n1,-4.7%
16,O=C(CSc1nc2ccccc2nc1Cc1ccccc1)N1CCCc2ccccc21,22.1%
17,CCCc1cc(=O)[nH]c(Nc2ccc(O)cc2C)n1,-6.54%
18,COc1cc(-c2ccno2)ccc1S(=O)(=O)N1CCN(c2ccc(F)cc2)CC1,-2.05%
19,CCc1ccc2occ(CC(=O)N(Cc3ccc(N(C)C)cc3)C3CCS(=O)(=O)C3)c2c1 (stereo not given),5.39%
20,CCOC(=O)c1cccc(NC(=O)c2sc3nc[nH]c(=O)c3c2C)c1,-12.4%
21,Cc1ccc(C(=O)NCCc2nnc3ccc(SCC(=O)Nc4ccccc4C)nn23)cc1,active: 41.2%
22,CCOC(=O)N1CCC(NC(=O)c2ccc3c(c2)N(Cc2ccc(Cl)cc2)C(=O)c2ccccc2S3=O)CC1 (stereo not given),8.34%
23,Cc1cccc(N(C)S(=O)(=O)c2nnc(NC(=O)C3CCCCC3)s2)c1,7.2%
24,Cn1ccc2cc(S(=O)(=O)N3CCN(C(=O)Nc4ccccc4F)CC3)ccc21,-17.2%

row,SMILES,inhibition
1,O=C(O)c1ccc(Nc2ncnc3ccccc23)cc1,active: 31.7%
2,CCc1cccc(NC(=O)COc2cc(=O)n(CC)c3ccccc23)c1,-8.67%
3,Cn1nccc1C(=O)NC1CCN(Cc2ccccc2)CC1,active: 54.8%
4,Nc1nc(N)c(S(=O)(=O)c2ccccc2)c(Nc2ccc(F)cc2)n1,-9.59%
5,CC(C)c1ccc(/C=C(\C#N)c2nc(-c3ccc(O)cc3)cs2)cc1,-1.97%
6,CCc1nnc(NC(=O)CSc2nc3c([nH]c4ccccc43)c(=O)n2-c2ccc(OC)cc2)s1,15.7%
7,O=C(C1CCCCC1)N(Cc1cccnc1)c1nc2ccc(F)cc2s1,-26.8%
8,O=C1C2CCCN2C(=O)N1CCCN1CCN(c2cccc(Cl)c2)CC1 (stereo not given),active: 31.3%
9,CCOc1ccc(NC(=O)Cn2c(=O)cc(C)c3c(C)nn(-c4ccc(CC)cc4)c32)cc1,-6.13%
10,COc1ccc(C(=O)Nc2ccccc2C(=O)OCc2cc(=O)n3nc(C4CC4)sc3n2)cc1,-18.1%
11,CCCCc1nc(NCCO)c(C#N)c2c1CCCC2,active: 48.2%
12,CC(C)c1nc2ccc(NC(=O)C34CC5CC(CC(C5)C3)C4)cc2[nH]1,active: 33.3%
13,CCOC(=O)N1CCc2c(sc3c2c(=O)n(-c2ccc(CC)cc2)c(=O)n3Cc2cc(C)ccc2C)C1,5.94%
14,CCOC(=O)c1c(C)oc2nc(C)nc(Nc3cc(C)ccc3OC)c12,-14.8%
15,CCOc1ccccc1NC(=O)C1CCCN(S(=O)(=O)c2cn(C)cn2)C1 (stereo not given),-9.55%
16,CCCCN(CC)Cc1ccc(CNS(=O)(=O)c2cc3c(cc2Cl)NC(=O)CO3)o1,-23.9%
17,CCOc1ccc(NC(=O)Cn2c(=O)n(Cc3ccc(C(=O)NCc4ccc5c(c4)OCO5)cc3)c(=O)c3ccccc32)cc1,-0.223%
18,CCCCOc1ccc(C(=O)Nc2ccc3c(c2)CCCN3S(=O)(=O)c2ccc(C)cc2)cc1,1.85%
19,CCOc1ccc(-c2cc(NC(=O)Nc3ccccc3C(F)(F)F)c(C(=O)OC)s2)cc1,7.74%
20,Cc1ccc(N2CC(C(=O)NCc3nnnn3-c3ccc(C)c(C)c3)CC2=O)cc1 (stereo not given),-4.05%
21,COC(=O)c1ccc(Cn2c(SCC(=O)Nc3ccc(F)cc3)nc3ccccc32)cc1,8.85%
22,O=C(Nc1c2c(nn1-c1ccc(Cl)cc1)CS(=O)(=O)C2)c1cccc(Cl)c1,-3.72%
23,CC1=C(C(=O)Nc2ccccc2)C(c2cccs2)n2nc(SCc3ccccc3)nc2N1 (stereo not given),4.93%
24,O=C(CSc1ccc2nnc(CCNS(=O)(=O)c3ccccc3)n2n1)Nc1ccccc1C(F)(F)F,2.55%

row,SMILES,inhibition
1,CC(=O)N1c2ccc(S(=O)(=O)NCCC(=O)Nc3ccc(C)cc3Br)cc2CC1C (stereo not given),12.4%
2,CCc1cccc(NC(=O)CN2c3ccccc3S(=O)(=O)c3ccccc32)c1,17.8%
3,O=C(c1ccc(F)cc1)n1nc(-c2ccc(Cl)cc2)nc1NCc1ccco1,-16%
4,COc1ccccc1NC(=O)Cn1nc(C)n2cccc2c1=O,3.19%
5,Cc1ccc(CNC(=O)Cn2ccn(-c3cc(C)cc(C)c3)c(=O)c2=O)cc1,-22.2%
6,COc1ccc(OC)c(NC(=O)c2cc3cc4ccc(C)cc4nc3s2)c1,20.8%
7,COc1ccc(CCN2C(=O)CN(C3CCCCCC3)C(=O)C2c2ccc(C)cc2)cc1OC (stereo not given),8.93%
8,O=C(NCc1ccccn1)c1nn(-c2ccccc2F)nc1CO,17.9%
9,COc1cc(CN2CCN(S(=O)(=O)c3ccc(F)cc3)CC2)cc(OC)c1OC,8.08%
10,Fc1ccccc1C1=NC(c2ccc(C(F)(F)F)cc2)=Nc2ccccc2N1,-1.71%
11,CCOc1ccccc1CN1CCc2nc(Nc3ccccc3)ncc2C1,-12.6%
12,Fc1ccc(-n2ncc3c(N4CCN(Cc5ccccc5)CC4)ncnc32)cc1,7.05%
13,COC(=O)c1cc(OC)c(OC)cc1NC(=O)c1ccc2c(c1)CCN2S(=O)(=O)c1ccccc1,2.02%
14,COc1cccc(CNC(=O)CSc2n[nH]c(-c3ccccc3Cl)n2)c1,-28.3%
15,COc1ccc(OC)c(CCNC(=O)CN2C(=O)COc3ccc(S(=O)(=O)N4CCCCCC4)cc32)c1,-4.79%
16,CCc1ccc(CNC(=O)c2ccc3c(c2)nc2n3CCCCC2)cc1,-25.8%
17,COc1cccc(CNC(=O)CCNS(=O)(=O)c2ccc3c(c2)CCCC(=O)N3)c1,-1.41%
18,Cc1ccc(O)c(NC(=O)COCc2cc(-c3ccco3)on2)c1,-3.94%
19,CC(=O)Nc1nonc1-c1nnc(SCc2ccccc2Cl)n1C,9.47%
20,COc1cc2c(cc1OC)n(CC(=O)c1ccc(C)cc1)c(=O)n1nc(CCn3nc(C)cc3C)nc21,6.42%
21,COc1ccc(NC(=O)c2ccc3c(c2)CCN3S(=O)(=O)c2ccccc2)cc1,-6.89%
22,COc1ccc(-c2cc(C(=O)Oc3cccc(C)c3C)c3ccccc3n2)cc1,-2.8%
23,CN(C)CCNC(=O)Cn1nc(N2CCN(c3ccccc3)CC2)ccc1=O,-2.15%
